Binding signal data for six molecules are collected here from paper PMC12136788.

This is one part of the list.

Sequences and labels used below:
B1: 179956415_179959755_592_3pUTR_ENSG00000135837_ENST00000367607|human|control|control (ssRNA)
RNA: GGGAGUUCUACAGUCCGACGAUCUUUUCUACUUAUUUUUCGAGUAGCACUUGUAGAAGACUUCUUGGUAUCCAUGACAGAAUCACACACAGCUGUACUUGUAGGGGCUACUUCUAAUUUAUUUUCAAUGUGUCUCAGAGCAGCCAACAGAGGAUUGAGCAUCA
B2: chr19:59067291:59067292:-_ENSG00000130725_ENST00000253023|hu_mus|motif|central (ssRNA)
RNA: GGGAGUUCUACAGUCCGACGAUCCAGGUCGGGGGGGAGGCAGCACCGACCAUAAUCACGUGGUGGUCAAAAAAAAAAUAACGGGGGGCAGGUGACAGGGAAGAGAGGCAAGGCCAAGGCAGGGGCCAAGGCUACCCCACACACCAACAGAGGAUUGAGCAUCA
B3: chr6:122779733:122779734:-_ENSG00000111897_ENST00000339697|hu_mus|motif|central (ssRNA)
RNA: GGGAGUUCUACAGUCCGACGAUCUAACAUUACACAAGCUACACAUACUCCGACGAGCAAGAAAAGUGCGUAGAUCAAUCGGGUCACAGUGGAGUUGUUCCCACUGGGGCAGCAUCGGCACAGCAAACACGGGGCACUGCCACACAACAGAGGAUUGAGCAUCA
B4: chr2:114691908:114691909:+_ENSG00000115091_ENST00000536059|hu_hu|FALSE|FALSE (ssRNA)
RNA: GGGAGUUCUACAGUCCGACGAUCGCCAAUCACAUACCCUUCAGCCACAGGAAUGACAUGAGUGACACCAUCUCCACUGUCUAUUACCGUACCGGUCAACGUCCGUUCUCCUACUUGUCUUGAGGUCCAAGAUGCAGCUAAGGCCAACAGAGGAUUGAGCAUCA
B5: chr10:90611280:90611281:-_ENSMUSG00000019961_ENSMUST00000072239|mus_mus|FALSE|FALSE (ssRNA)
RNA: GGGAGUUCUACAGUCCGACGAUCGAUUUAAAAGCAAGUCAGUUAUACUUUUAAAUCAAAUUACAUCGGGAAUUAUAUGCCUAAAACAAACAAAAAUAACACCCAGACUCAACCCAAAACAAAAAACCCAAAAAUCCCUGGCUGCAACAGAGGAUUGAGCAUCA
B6: chr7:135612270:135612271:-_ENSG00000105887_ENST00000393085|hu_hu|FALSE|FALSE (ssRNA)
RNA: GGGAGUUCUACAGUCCGACGAUCUUUUCUGAGAUGUUAAGUAUUACUUCAGUGGAGAACAAAACUUACUUAACCUUUCGCUAAUGCAUGUAGUACCAGAAAGCAAACAUGGUUUUAGCUUCCUUUACUCAAAAUAUGAACAUUCAACAGAGGAUUGAGCAUCA

This assay concerns the target T1, UNK ZnF1-3 (human, UniProt Q9C0B0 31-174).
T1 sequence: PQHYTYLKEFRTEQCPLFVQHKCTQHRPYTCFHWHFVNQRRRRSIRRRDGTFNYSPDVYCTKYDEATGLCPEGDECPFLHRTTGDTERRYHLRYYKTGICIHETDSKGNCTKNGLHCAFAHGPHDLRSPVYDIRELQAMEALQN
The assay is described as follows: nsRBNS (natural sequence RNA bind-n-seq); RBNS binding buffer (assumed for nsRBNS): 25 mM Tris pH 7.5, 150 mM KCl, 3 mM MgCl2, 0.01% Triton X-100, 500 ug/ml BSA, 20 U/ml SUPERase-In, 4 C; UNK is unkempt and MSI1 is Musashi-1; names of the RNAs are library labels; protein concentration not given here; high values mean tight binding.
B1 gave a binding signal of 1.18 enrichment R.
Molecule B2 returned a binding signal of 2.56 enrichment R.
B3 came in with a binding signal of 1.42 enrichment R.
In turn, B4 returned a binding signal of 1.24 enrichment R.
With B5 the figure was 1.59 enrichment R; with B6, 0.587 enrichment R.
